# Data from ChEMBL document CHEMBL4888484, “Replenishing the malaria drug discovery pipeline: Screening and hit evaluation of the MMV Hit Generation Library 1 (HGL1) against asexual blood stage Plasmodium falciparum ,using a nano luciferase reporter read-out” (2022).
# The campaign covered roughly 150,000 compounds. About 540 (0.36%) showed an effect of 50% or more. Some of the results follow.
# Test system: Plasmodium falciparum
# Assay: Primary screen in NF54 nanoGlo assay, in single point, at 2uM, 72h; a lower Z score goes with more inhibition
# Type: functional, Erythrocyte
# Conditions: timepoint 72 hour
SMILES,% Inhibition [%],Z score
N#CC1(C(=O)N[C@@H]2CCCC(F)(F)[C@H]2O)CCCC1,-10,1.46
CCc1nc(C)ccc1OCc1nnc(C)n1C1CC1,-7,0.83
O=C(CN1CCOCC1)N1CCN(Cc2nc(-c3ccsc3)no2)CC1,-5,1.02
C[C@@H](C(=O)Nc1ccccc1N1CCc2ccccc21)n1cncn1,-1,0.13
CCN1c2cc(C(=O)Nc3ccc(C)c(F)c3)ccc2C(=O)N2CCC[C@@H]21,9,-1.13
CC[C@H]1C=CCN1C(=O)c1coc(CN2CCN(c3ncccn3)CC2)n1,0,-0.03
Cc1cccnc1N(C(=O)c1cccs1)C(=O)c1cccs1,-14,1.79
CC(C)c1nccc(CN(C)CC2(C)COC2)n1,-13,1.25
O=C(NCC1CCN(C(=O)c2cn3cc(Cl)ccc3n2)CC1)[C@@H]1CCCO1,-2,0.36
COC(=O)c1nc(NC(=O)Cc2ccc3c(c2)OCC3)sc1CC(C)C,-15,1.92
CCCCCc1ccc(C(=O)N2CCN(c3nc(-c4cccc(C)c4)nc(C)c3CC)CC2)cc1,-2,0.47
COC(=O)C(C)(C)CNC1CCC(C)C1 (stereo not drawn),-9,0.93
Cc1ncccc1OCC(=O)N1CCCCC1,-7,1.19
c1ccc(CN(Cc2ccco2)C[C@H]2CCOC2)nc1,15,-1.96
CCN(CC)CCn1ccnc1-c1ccc2onc(C)c2c1,-8,1.02
COc1ccc(Cc2n[nH]c3c2CN(Cc2nccs2)CC3)cc1OC,6,-0.85
CC(C)(C)OC(=O)Nc1ccc(Cl)c(O)c1,-18,2.01
Cc1cc(C#N)c(Br)cc1F,-10,1.13
O=C(NC1CCCCCC1)[C@@H]1CCCN1S(=O)(=O)c1ccc2c(c1)OCCO2,2,-0.29
CCS(=O)(=O)N1CCC2(CC1)O[C@@H](CC(=O)NC(C)C)Cc1ccccc12,3,-0.33
CCOC(=O)N[C@H](C(=O)N1CCCC1)C(C)C,-9,1.35
Cc1cccc(CN(C(=O)c2ccco2)c2ccc(CC(=O)NCc3cccnc3)cc2)c1,-9,1.23
CCn1c(-c2cc(NC(=O)Cc3cccc(OC)c3)[nH]n2)c(C)c2ccccc21,4,-0.62
O=C(CCc1conc1-c1cccc(F)c1)NC1CC1,-8,1.59
